Test results published in patent US10941208B2, “Anti-MUC16 antibodies” (Regeneron Pharmaceuticals, Inc., priority 2016, dated 2021).
Read-outs that look alike come from different tables or passages of the source.

How the values were obtained:
OVCAR-3/Luc [1] = assay: OVCAR-3/Luc xenograft in PBMC-engrafted NSG mice, immediate dosing; type: in vivo; settings: NSG mice with human PBMCs, 10 μg/mouse i.p. on day of implantation (immediate dosing)
From the text: To assess the in vivo efficacy of the anti-MUC16/anti-CD3 bispecifics in human tumor xenograft studies, NOD scid gamma (NSG) mice (Jackson Laboratories, Bar Harbor, Me.) were pre-implanted with human peripheral blood mononuclear cells (PBMCs; ReachBio LLC., Seattle, Wash.) and then given ascites cells from the human ovarian cancer cell line OVCAR-3 (American Type Tissue Culture, Manassas, Va.) transduced with luciferase (OVCAR-3/Luc). OVCAR-3 cells endogenously express MUC-16.
Briefly, NSG mice were injected intraperitoneally (i.p.) with 5.0×10^6 human PBMCs. 8 d later, 1.5×10^6 ascites cells from the OVCAR-3/Luc cell line, previously passaged in vivo, were administered i.p. to the NSG mice engrafted with PBMCs. In the immediate treatment group, mice were treated i.p. on the day of OVCAR-3/Luc cell implantation with MUC16/CD3 Bispecific antibodies BSMUC16/CD3-001 or BSMUC16/CD3-005, or an isotype control, at a dose of 10 μg/mouse (N=5 mice/treatment group). In the therapeutic dose model, mice were treated i.p. 7 d post tumor implantation with the MUC16/CD3 Bispecific or control antibodies described above, at a dose of 10 μg/mouse (N=5/treatment group).
In all studies, tumor growth was monitored via bioluminescent imaging (BLI). […] Regions of interest were drawn around each cell mass and photon intensities were recorded as photons (p)/sec (s)/cm^2/steradian (sr). […]

human T cells (CD2+) = assay: T cell activation (CD69/CD25 upregulation on CD2+ T cells) in cytotoxicity co-culture; type: cell-based
Procedure: Briefly, MUC16-expressing (OVCAR3) cell lines were labeled with 1 μM of the fluorescent tracking dye Violet Cell Tracker. After labeling, cells were plated overnight at 37° C. Separately, human PBMCs were plated in supplemented RPMI media at 1×10^6 cells/mL and incubated overnight at 37° C. in order to enrich for lymphocytes by depleting adherent macrophages, dendritic cells, and some monocytes. The next day, target cells were co-incubated with adherent cell-depleted unstimulated PBMC (Effector/Target cell 4:1 ratio) and a serial dilution of relevant bispecific antibodies or Isotype control (concentration range: 66.7 nM to 0.25 pM) for 48 hours at 37° C. Cells were removed from cell culture plates using an enzyme-free cell dissociation buffer, and analyzed by FACS. See results represented in Table 8A.
B. In analogous studies, MUC16-expressing (PEO-1 or OVCAR3-Luc) cell lines were labeled, plated and incubated overnight as described. Serial dilutions of MUC16×CD3 bispecific antibodies or isotype control were co-incubated. See results depicted in Tables 8B and 8C, and FIGS. 12A-12B.
For FACS analysis, cells were stained with a dead/live far red cell tracker (Invitrogen). 5×10^5 counting beads were added to each well immediately before FACS analysis. 1×10^4 beads were collected for each sample. For the assessment of specificity of killing, cells were gated on live Violet labeled populations. Percent of live population was recorded and used for the calculation of normalized survival.
T cell activation was assessed by incubating cells with directly conjugated antibodies to CD2, CD69 and/or CD25, and by reporting the percent of early activated (CD69+) T cells and/or late activated (CD25+) T cells out of total T cells (CD2+).

OVCAR-3/Luc [2] = assay: OVCAR-3 model study 2 (xenogenic, BLI); type: in vivo, mouse (NSG); settings: for Avg Radiance 4 days post-implantation (median ± SEM): Day 4, before dosing started (baseline)
Procedure: In further experiments, the in vivo efficacy of an anti-MUC16/anti-CD3 bispecific antibody was evaluated in xenogenic and syngeneic tumor models. For the first xenogenic model, NSG mice were injected intraperitoneally (IP) with OVCAR-3/Luc cells previously passaged in vivo (Day 0) eleven days after engraftment with human PBMCs. Mice were treated IP with 0.01, 0.1, or 0.5 mg/kg BSMUC16/CD3-001, or administered 0.5 mg/kg non-binding control or CD3-binding control on Days 6, 10, 13, 16, and 21. Tumor burden was assessed by BLI on Days 6, 14, and 20 post tumor implantation. […] For the second xenogenic model, NSG mice were injected with OVCAR-3/Luc cells previously passaged in vivo (Day 0) thirteen days after engraftment with human PBMCs and a second batch of PBMCs were transferred on Day 4. Mice were treated intravenously (IV) with 0.1, 0.5, 1, or 5 mg/kg BSMUC16/CD3-005 or administered 5 mg/kg non-binding control or CD3-binding control on Days 5, 8, 12, 15, 19 and 22. Tumor burden was assessed by BLI on Days 4, 11, 18 and 25. […] To examine efficacy in an immune-competent model, the murine CD3 gene was replaced with human CD3 and a portion of the mouse MUC16 gene was replaced with the human sequence. […] For the syngeneic tumor model, ID8-VEGF cell lines engineered to express the portion of human MUC16 were used. Mice were implanted with the ID8-VEGF/huMUC16 cells subcutaneously and treated with 100 μg of BSMUC16/CD3-001 either on day of implantation or ten days after implantation when tumors were established.
Ascites cells from the OVCAR-3/Luc cell line, previously passaged in vivo, were administered IP into the NSG mice previously engrafted with human PBMCs. BLI was measured as a read-out for tumor growth several days after OVCAR-3/Luc implantation and at multiple times during study. After initial BLI measurement for cohorting, mice were divided into groups of 4-6 animals each and administered MUC16×CD3 bispecific or control antibodies twice per week throughout the study.
Bioluminescence imaging was used to measure tumor burden. Mice were injected IP with 150 mg/kg (as determined by body weights at the start of the experiment) of the luciferase substrate D-luciferin suspended in PBS. Ten minutes after dosing, BLI imaging of the mice was performed under isoflurane anesthesia using the Xenogen IVIS system. Image acquisition was carried out with the field of view at D, subject height of 1.5 cm, and medium binning level for 0.5-min exposure time. BLI signals were extracted using Living Image software. Regions of interest were drawn around each tumor mass and photon intensities were recorded as p/s/cm^2/sr. Statistical analysis was performed using GraphPad Prism software (Version 6). Statistical significance for the BLI results was determined using an unpaired nonparametric Mann-Whitney t-test. Fold changes were calculated by the formula: (Day 20-Day 6)/Day 6 for study 1 and (Day 25-Day 4)/Day 4 for study 2.

B1: BSMUC16/CD3-005: anti-MUC16×CD3 bispecific, modified (chimeric) IgG4 Fc; H1H8767P HCVR (SEQ 18), CD3-VH-G20 (SEQ 1866), common LCVR SEQ 26 (antibody, V domains shown)
VH 1: QVQLVESGGGLVKPGGSLRLSCAASGFTFSNYYMSWVRQAPGKGLEWISYISGRGSTIFYADSVKGRITISRDNAKNSLFLQMNSLRAEDTAVYFCVKDRGGYSPYWGQGTLVTVSS
VH 2: EVQLVESGGGLVQPGRSLRLSCAASGFTFDDYSMHWVRQAPGKGLEWVSGISWNSGSIGYADSVKGRFTISRDNAKNSLYLQMNSLRAEDTALYYCAKYGSGYGKFYYYGMDVWGQGTTVTVSS
VL: [… about 100 residues …]PITFGQGTRLEIK
- Avg Bioluminescent Radiance Day 26 (mean ± SD) (OVCAR-3/Luc [1]): 1.5 × 10^3 ± 9.7 × 10^2 photons/sec/cm^2/steradian
- EC50 (human T cells (CD2+); co-culture with OVCAR3-Luc target cells, read-out: T cells activation (CD25 upregulation) EC50): 0.117 nM
- EC50 (human T cells (CD2+); co-culture with PEO-1 target cells, read-out: T cells activation (CD25 upregulation) EC50): 0.106 nM
- EC50 (human T cells (CD2+); co-culture with PEO-1 target cells, read-out: T cells activation (CD69 upregulation) EC50): 0.0172 nM
- Fold change in Avg Radiance [p/s/cm2^2/sr] from Day 4 to D 25 post-implantation (mean ± SD) (OVCAR-3/Luc [2]; 0.1 mg/kg IV, (Day 25-Day 4)/Day 4): 45.4 ± 35.7 fold
- Avg Radiance 4 days post-implantation (median ± SEM) (OVCAR-3/Luc [2]; 0.1 mg/kg group): 1.53e+05 ± 1.93e+04 p/s/cm2^2/sr
- Avg Radiance 4 days post-implantation (median ± SEM) (OVCAR-3/Luc [2]; 0.5 mg/kg group): 1.31e+05 ± 4.03e+03 p/s/cm2^2/sr
- Avg Radiance 4 days post-implantation (median ± SEM) (OVCAR-3/Luc [2]; 1 mg/kg group): 1.38e+05 ± 4.65e+03 p/s/cm2^2/sr
- Avg Radiance 4 days post-implantation (median ± SEM) (OVCAR-3/Luc [2]; 5 mg/kg group): 1.54e+05 ± 1.03e+04 p/s/cm2^2/sr
